Read counts are not given, so values of variants with three or more changes are uncertain.
B1: OR4K15 (parent)
chain: GUUAACGGUCAUAGGCCAUGGAAACUAGGAGCACCAUUUCGCUGCCAGUGAAGAAAUGAACAAAGAAAAUCUGGGCCAGGCAGGCAUCAAAAGAAAUAGUCUUGCGCUCAACCAGAAAGUCUGUAAUCAUUUUAAGGGUA

Variants of: B1
Test: self-cleavage, relative activity (ratio to wild type); higher = more cleavage; in vitro, sequencing; the parent is a self-cleaving ribozyme

Variant | self-cleavage
A59G A117G U130C | 1.3
A24G U43C A59G U87A | 0.9
A27G A30G U38C U127A | 1.19
G50A A59U A78U U122C U139A | 0.09
U9C U26C A62G A95G | 1.75
U57C A63G A92G C105U A116G | 0.02
A18G A30G A63G A78U | 0.4
U26A G74A A114U | 0.06
U9A A63G A91G U102C A118G U122C | 0.77
U70C A111G A117G | 0.05
U39A A52G A60G A114U | 0.08
A11G A22G A30U A66G A94G A114G | 0.66
A51G U100C A125U | 2.76
A23G U43C A55G U70C | 0.71
U39C A56G A135U | 1.09
A92G U97C A98G A118G A135G | 2.15
U43C A52G A89G | 0.81
A30G A51U A63G A82G | 0.23
U9C A95G A116G A117G | 2.03
G29A C45U A114G | 0.84
U102C A117G U130C | 2.46
A4G G73A A82U A125G | 0
A36G U39C A64U A96G | 1.57
A47G A51G A117U | 1.12

Variant | self-cleavage
U2C G83U A134G | 0.5
U38C U72C A90G A91G | 0.11
A5G A30G A36U A68G G75C C88U U100C C105A | 0
U9C A24U A68G A90G | 1.08
A11G A22G U102C A140G | 1.03
A59G U72C A94G | 0.14
A13G A111C U132C | 0.02
G29U A67G A95G C107U | 0.01
U9A A11G U19C A64G | 1.2
C6U A56G U120C U139C A140G | 0.25
A11G U102A U130C | 0.53
U26C A90G G93A U108A | 0
U2A U19C A116G | 0.93
U37C G41A A52U G73A G83U | 0.35
C34A A56G U100C A118G | 1.53
A30U A69U A98G U108A | 0.01
U49C A68G U87C | 1.25
A11G A55G A82G U87C U132C | 0.05
A4G A95G U130C | 1.56
U43C U97C A140G | 1.89
A4G A69G A135U | 1.49
A5U A11G A54U U102A | 0.7
A67G A86G A116G | 0.73
A64C A68G A95G | 1.29

Variant | self-cleavage
A60G A62G U87A A116G | 0.12
A59G U122A U130C | 1.76
A30G A33G A94G | 1.07
A22G A63G U87C | 1.07
A36U A59G A114G A140G | 0.53
A92G U100C A126G | 1.58
A69U C81U A89U U102C U108C | 0.01
A18U G80A A95G C105U | 0.12
A60U A67G U122C | 1.95
A33U U43A U130C | 1.23
A52G A66U A116G | 0.24
U38A A125G A126G | 0.29
A98G U108C U133A | 0.01
A68G U72C A116U | 0.11
A55C A59G A95U | 0.85
U37C U87C A92G U103G | 0.03
A78U A110G A135U | 0.08
U12C A52G U103C | 0.89
U26C A56G U87A A111G U122A A126G | 0.01
U49A A60G A67U C76U U120C U127A | 0.1
A5U U39C A51G A91G U120C | 0.92
U72A A96G U100C A116U U120C | 0.11
G21A A24C A55G | 0.96
C35A A36U A60G A114U | 0.02

Variant | self-cleavage
A22U A23G A63G A111G A140G | 0.16
U19C A24G A54G A69G | 0.9
G7U U12C A47G A60G | 0.41
A56G A63G U103C A116G U122C | 0.09
A56G U132C G138U | 0.83
A18G A33G G74U U122C | 0.07
A94U A118G U124A | 0.96
A94G A96G U130A | 0.19
G74C A96G U122C | 0.12
U37C A94G U102A | 0.68
A67G A82G U103C | 2.32
U19C U97G U102C U108C | 0.01
A11G A68G U87C | 1.29
A47G A78U A86U A140G | 0.73
G28A A36G U43C U57C | 1.15
U19A A27G A92G | 1.75
A62G A92G A117G U130A | 0.55
A22G A54G A63U A86G U87C | 0.32
A30G A117G A129G | 1.14
A36U U49C G136A | 2.07
G15A U39C A86U | 2.09
A22U U43C A82G | 0.23
A13G A63U A86G A92G A116U | 0.53
U2A A11G U103G A114G U130C | 0.02

Variant | self-cleavage
A54G A82G G83U A91G U100C | 0.31
A18G A47G A86G U132C | 0.93
A13U A18G U37C A51G A56G U100A | 0.94
A33U G84A U100C U127C | 0.2
U2G A22G A111C U127C U133C | 0
U3A A64U A90G A94G | 0.05
U9C A24G A110C | 0.51
A5G A22G U132C | 0.39
U43C A89G G137A | 2.11
A59G A64G G74U | 1.78
U9C U19C A59G A69G A91G | 0.73
A69G A92G A94G | 1.47
C6A A11G A27G G41U A51G G65U U108A | 0.01
A4G A5G A23U A89G U103C U120C | 0.73
A11G A55G U122C | 0.54
U9A A13G A23G | 0.42
A33G G41A A47U A111G U120C | 0.01
U49C U57C A60G | 0.89
A52G A67G A68G A96G U100C U108A A140G | 0.01
A55G U57C A89U A117G | 2.07
U49A A60G U103C | 0.76
A54G A63G C109U | 0.42
A23G G65A U100G | 1.21
A11C G29U A47G A63G A95G | 1.99

Variant | self-cleavage
A18G U43C A118G | 1.18
A22U A30G A54G A56G A95G | 0.58
U2A U100C U108C | 0.17
A33G G79U U103G U108C | 0.01
A27G A60G G75U A126G | 0.03
A55G A63G A67G | 0.99
U19A A30G A59G A82G | 0.53
U37C C71G A91G | 0.12
A22G U37C A114U | 0.09
A60G A92G A95G U108C A134U | 0.01
U9A U19C U131C U132C | 1.39
A23G A33G A51U A54G A55G A59G | 0.93
U38C U120A A129U | 1.05
U49G A60U A92G U100C | 2.13
U12C U37C A62U U103C U122C | 0.3
G29U A36C A62U | 2.16
A30U A54G U102C C109U U133C | 0.61
A30G A55G U72G | 0.33
U12C A30G A114U | 0.16
A23G A51U A54G A64G U70C C71A | 0.61
A27G U57C G99U U102C | 1.33
A5C G48A A78U | 0.62
U12C U38A A68G | 1.69
U12C U19C U39C | 0.54

Variant | self-cleavage
A23G A96U U139C | 1.25
A52G A59G A68G A69G | 0.71
U9C C25A U49C U102A | 0.71
A68G A118G U130C | 0.74
A62G A96G G99U U100C U108C A110G | 0
A27G A59G A90G A118G U131C U132C | 0.13
A24C C42A U122C | 0.89
A66G A86G A118G | 0.55
U3C A63G G73A A96G | 0.14
A60U U87C A126U U127C | 0.27
A51G A54G A59G A94U G119U U131C | 1.58
A59G A68G A86G U130C | 0.38
G28A U49C A55G A67G A96G | 1.46
U3C A89C U130C U132C | 1.01
U57A A82G A90U | 0.76
A11G A51G U100C | 1.25
C16U A18G A56G U72C A94U | 0.08
U39A A91G A94G | 1.15
A18U U39A A62G A94G | 1.34
U19A C107A U120C | 0.02
U38C A51G A54G U102C | 1.93
A11G A51G A78G A82G | 0.15
A24G G75A A126G | 0.06

Source: the RNAGym collection of RNA variant scans (doi:10.7554/elife.90254)
